Measurements as given in PubChem BioAssay AID686979 (National Center for Advancing Translational Sciences (NCATS), 2013).
Among all 420,000 compounds or so, about 50,000 (12%) were called active. Inconclusive means that the source gave no clear call. Such entries were picked first, then a sample of the others. Calls follow the shape of the dose curve; as a rule, active = well fitted inhibition curve with a large enough effect; inconclusive = small, poorly fitted or top-dose-only effect; inactive = flat fitted curve, though single readings scatter. Potencies of inconclusive entries are left out as doubtful fits.
Potency is read from the fitted curve at half-maximal effect; tags tell the direction and shape of the fitted curve.

Test: qHTS for Inhibitors of human tyrosyl-DNA phosphodiesterase 1 (TDP1): qHTS in cells in presence of CPT; also: nearly all actives have a fitted effect of over 55% in size
Settings: chicken DT40 Tdp1-/-;hTDP1 cells + 20 nM CPT, ATP luminescence, 48 h; series mostly up to 46.2 µM
Outline: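 Chicken DT40 Tdp1-/- cells complemented with human TDP1, 400 cells/well, exposed to compounds plus 20 nM camptothecin for at least 48 h at 37 C; viability read as ATP content by CellTiter-Glo luminescence.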
For `CN(C)CCCn1c(=O)n(C2CCCCC2)c(=O)c2c3c(sc21)CCCCC3`, the Potency was inconclusive [inhibitor, single point]. With `CCCNC(=O)c1cc2c(c(-c3cccc(-c4ccc(F)cc4)c3)n1)[C@@H](CCO)N(S(=O)C(C)(C)C)C2` (stereo not given in full) the Potency was inconclusive [inhibitor, single point]. For `CCOC(=O)C1(Cc2ccccc2C)CCCN(C(=O)CCn2nccc2C)C1` (stereo not given), the Potency was inconclusive [inhibitor, single point]. In the case of `COc1cc(OC)cc(C(=O)Nc2ccc3oc(-c4ccc(Cl)cc4)nc3c2)c1`, the Potency was inconclusive [inhibitor, single point]. In the case of `CCc1cccc(CC)c1NC(=O)c1c(C)oc2ccc(O)c(CN3CCOCC3)c12`, the Potency was inconclusive [inhibitor, partial curve]. In the case of `Cc1cccc(/C(N)=N/OC(=O)COc2ccc(Cl)cc2)c1`, the Potency was inconclusive [inhibitor, single point]. With `O=C(COc1ccc(Cl)cc1Br)Nc1ccncc1` the Potency was inconclusive [inhibitor, single point]. For `Cc1cc(-c2csc(NC(=O)c3cc4ccccc4o3)n2)c(C)n1C`, the Potency was inconclusive [inhibitor, single point]. For `Cc1nc(N2CCN(c3ccccn3)CC2)c2c(C)c(C(=O)Nc3c(F)cc(F)cc3Br)sc2n1`, the Potency was active: 16.4 µM. For `Cc1nc2ccc(S(=O)(=O)N(CC(=O)Nc3ccc(Cl)cc3)Cc3ccccc3)cc2s1`, the Potency was inconclusive [inhibitor, single point]. For `O=C(CN(C(=O)CCC(=O)Nc1ccccn1)c1ccc(F)cc1)NCc1ccc(F)cc1`, the Potency was “inactive”. For `COc1cc(Cl)c(C)cc1Nc1c2c(nc3ccccc13)CCC2`, the Potency was active: 2.06 µM. For `CCC(=O)N1CCC2(CC1)Oc1ccc(F)cc1C(=O)C21CC(c2ccc(Cl)cc2)=NO1` (stereo not given), the Potency was inconclusive [inhibitor, single point]. For `CCCCCCCCn1c(N2CCN(c3cccc(Cl)c3)CC2)nc2c1c(=O)[nH]c(=O)n2C`, the Potency was inconclusive [inhibitor, single point]. With `O=C(c1ccc2c(c1)N(Cc1cccc(Cl)c1)C(=O)c1ccccc1S2(=O)=O)N1CCC(Cc2ccccc2)CC1` the Potency was active: 4.11 µM. For `CCOc1ccccc1CNC(=O)CN1C(=O)CCn2nc(-c3cn(C)c4ccccc34)cc21`, the Potency was inconclusive [inhibitor, single point]. In the case of `COc1ccc(CNC(=O)c2ccc3c(c2)NC(=O)C(CS(=O)(=O)Cc2ccccc2Cl)N3)cc1` (stereo not given), the Potency was inconclusive [inhibitor, single point]. For `O=C(CCSCCC(=O)NCc1ccco1)NCc1ccco1`, the Potency was inconclusive [inhibitor, single point]. For `CN1C(=O)CSC1=NC12CC3CC(CC(C3)C1)C2`, the Potency was “inactive”. For `COc1ccc(Oc2ncc3nc(C)c(=O)n(CCC#N)c3n2)cc1`, the Potency was “inactive”. For `O=C(NCCc1cccnc1)c1cc(COc2ccc(F)cc2Cl)on1`, the Potency was inconclusive [inhibitor, single point]. For `O=C(Cn1nnc(-c2ccc(OCc3ccccc3F)cc2)n1)N1CCOCC1`, the Potency was “inactive”. For `CCOC(=O)c1cccc(NS(=O)(=O)c2c(C)nc3sc(C)cn3c2=O)c1`, the Potency was active: 13 µM. With `O=C(c1ccncc1)N1CCC2(CCCN(c3ccc(-c4ccccc4)cc3)C2)CC1` the Potency was inconclusive [inhibitor, single point]. With `CCOc1ccccc1N(C)C(=O)Cn1cnc2onc(-c3ccc(F)cc3)c2c1=O` the Potency was inconclusive [inhibitor, single point]. For `COCOCCn1cc(CN2CCS(=O)(=O)N(Cc3ccc(-c4ccc(C)cc4)cc3)C(C)C2=O)nn1` (stereo not given), the Potency was inconclusive [inhibitor, single point]. With `CC(=O)NN1C(=O)c2ccccc2NC1c1ccccc1F` (stereo not given) the Potency was “inactive”. For `Cc1nn(CC(=O)NC(=O)NC2CCCC(C)C2C)c(=O)c(C#N)c1C` (stereo not given), the Potency was “inactive”. In the case of `COc1ccccc1-n1ncc2c(=O)[nH]c(SCC(=O)Nc3cccc(F)c3)nc21`, the Potency was “inactive”. For `O=C(OCc1cn([C@H]2C[C@H](c3ccccc3)N(C(=O)c3cccs3)C[C@@H]2O)nn1)c1ccccc1`, the Potency was inconclusive [inhibitor, partial curve]. In the case of `CC(C)CCOc1ccc(Oc2nc(N(C)C)nc(N(C)C)n2)nn1`, the Potency was active: 18.4 µM. For `O=C(Nc1cc(-c2nc3ccccc3s2)ccc1Cl)c1ccc2c(c1)OCO2`, the Potency was inconclusive [inhibitor, partial curve]. With `Cc1ccc(OCCCN2C(=O)C(=O)c3cccc(C)c32)cc1` the Potency was active: 7.31 µM. In the case of `O=C(NCCC1CCCCN1S(=O)(=O)c1ccccc1)C(=O)NCc1ccccc1` (stereo not given), the Potency was inconclusive [inhibitor, partial curve, poor fit]. For `CC(=O)Nc1ccc(/C=N/Nc2ccc(C(=O)c3c(C)cc4ccccn34)cc2[N+](=O)[O-])cc1`, the Potency was active: 18.4 µM. With `O=Cc1cc([N+](=O)[O-])ccc1N1CCOCC1` the Potency was “inactive”. In the case of `CSc1cccc(N2C(=O)N(CC(=O)NCc3ccccc3Cl)c3ccccc3S2(=O)=O)c1`, the Potency was inconclusive [inhibitor, single point]. In the case of `NC(COCc1ccccc1)c1csc(Nc2cc(Oc3ccccc3)ncn2)n1` (stereo not given), the Potency was inconclusive [inhibitor, single point]. For `CC1=NN(c2ccc(C)cc2)C(=O)/C1=C\C=C\c1ccccc1`, the Potency was active: 11.6 µM. With `Cc1nc(N2CCN(S(=O)(=O)c3cccs3)CC2)c2c(-c3ccccc3)c(C)sc2n1` the Potency was inconclusive [inhibitor, single point]. For `Cc1cc(=O)n2c(C(=O)Nc3ccc(F)c(Cl)c3)c(C(=O)Nc3cccc(C)c3C)sc2n1`, the Potency was inconclusive [inhibitor, single point]. For `CC(C)Oc1ccccc1/C=N/NC(=O)C1CC1`, the Potency was “inactive”. In the case of `CC(C)C(C)NC(=O)COc1ccc(-c2ccccc2)cc1` (stereo not given), the Potency was active: 18.4 µM. With `O=C(Nc1ccc(F)cc1)C1CC2CCC1C2` (stereo not given) the Potency was inconclusive [inhibitor, partial curve]. For `C/C(=N/Oc1nc(C)cc(C)n1)c1ccc(Cl)cc1Cl`, the Potency was inconclusive [inhibitor, single point]. With `Cc1sc2ccccc2[n+]1Cc1ccccc1` the Potency was active: 0.794 µM. In the case of `Cc1cc(C)n(/N=C/c2cc([N+](=O)[O-])ccc2O)c(=O)c1`, the Potency was inconclusive [inhibitor, single point]. For `CCOC(=O)c1c(NC(=O)c2ccccc2Br)sc2c1CCc1ccccc1-2`, the Potency was inconclusive [inhibitor, single point]. With `COCC(CN1CCN(C2=NS(=O)(=O)c3ccccc32)CC1)OC(=O)c1ccc(OC)cc1` (stereo not given) the Potency was “inactive”. In the case of `COc1ccc(-n2c3c(c(=O)[nH]c2=O)C(NS(=O)(=O)c2ccc(Cl)cc2)(C(F)(F)F)C(=O)N3)cc1` (stereo not given), the Potency was “inactive”. For `Cc1nnc(SCc2ccccc2Cl)c2cc3occc3n12`, the Potency was inconclusive [inhibitor, single point]. With `CCOc1ccccc1CN1CCNC(=O)C1CC(=O)NC1CCCCCCC1` (stereo not given) the Potency was active: 29.1 µM. With `Cc1cccc2sc(N(Cc3cccnc3)C(=O)Cc3ccccc3)nc12` the Potency was “inactive”. In the case of `CCOc1ccc(N2C(=O)C3CCCN3C2=S)cc1` (stereo not given), the Potency was “inactive”. In the case of `CN1CCN(c2ccc(S(=O)(=O)N3CCCCC3)cc2[N+](=O)[O-])CC1`, the Potency was “inactive”. For `C=CCN(c1ccccc1)S(=O)(=O)c1cccc(C(=O)NC2CCN(Cc3ccccc3)CC2)c1`, the Potency was active: 13 µM. For `COc1ccc(CNc2nc(-c3cccc(C#N)c3)nc3ccccc23)c(OC)c1`, the Potency was inconclusive [inhibitor, single point]. In the case of `CC1(c2nnc(-c3cccc(Cl)c3)o2)CC(c2ccccc2)=NO1` (stereo not given), the Potency was “inactive”. With `CCC1C(=O)Nc2nc(-c3ccccc3)c(-c3ccccc3)n2N=C1C` (stereo not given) the Potency was active: 20.6 µM. In the case of `O=C(NCc1ccc2c(c1)OCO2)C1CCC(=O)N1C1CCCCC1` (stereo not given), the Potency was “inactive”. With `O=C(COc1ccccc1[N+](=O)[O-])N/N=C/c1cccc(OC(=O)c2ccc3c(c2)OCO3)c1` the Potency was inconclusive [inhibitor, single point]. In the case of `C=C1C=C(C(F)F)n2ncc(C(=O)Nc3cccc(CC)c3)c2N1`, the Potency was “inactive”. With `CC1=C(C(=O)Nc2cc(C(=O)N3CCN(c4cccc(C)c4)C(C)C3)ccc2C)SCCO1` (stereo not given) the Potency was inconclusive [inhibitor, single point]. For `COc1ccc(NC(=O)CN(C)S(=O)(=O)c2ccc3c(c2)CCCN3C(C)=O)cc1Cl`, the Potency was inconclusive [inhibitor, single point]. With `Cc1cc(Nc2ccc(C(C)C)cc2)nc(-n2nc(C)cc2C)n1` the Potency was active: 0.58 µM. For `Cn1cccc1Cc1nnc(SCC(=O)Nc2ccc(F)cc2)n1CCc1ccccc1`, the Potency was inconclusive [inhibitor, partial curve]. For `Nc1[nH]c(=O)[nH]c(=O)c1N=Cc1ccccc1`, the Potency was inconclusive [inhibitor, partial curve]. With `Oc1c(CN2CCN(c3ccccc3)CC2)cc(Br)c2cccnc12` the Potency was active: 5.17 µM. For `COc1cc(-c2noc(-c3ccc(NC4CCCCC4)c([N+](=O)[O-])c3)n2)cc(OC)c1OC`, the Potency was “inactive”. With `CCOC(=O)[C@H]1[C@H]2COc3ccc(Br)cc3[C@@H]2N2C(=O)c3cc(Br)ccc3NC(=O)[C@@]12C` the Potency was inconclusive [inhibitor, single point].
